From the supplement of paper PMC11417369
Some of the results follow.

System: PfSIP2 AP2 domain 1 (GST-tagged)
Test: gcPBM binding intensity (ln(normalized median fluorescence intensity)); higher = stronger DNA binding
Outline: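 GST-tagged P. falciparum DNA-binding domains produced in E. coli were incubated for 1 h on an Agilent 4 × 180k array of primer-extended double-stranded 36-bp intergenic genomic probes with negative controls. Binding intensity is the highest Masliner-normalised natural-log median intensity across replicate spots of either probe orientation, with bound protein detected by Alexa488 anti-GST antibody at 488 nm.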

Sequence | gcPBM binding intensity (ln)
TTATTACACAAATGGTGTACTTTTGAGGAACCAAAA [XGTACX_site4279] | 7.23
TTTTCATTCTTTTCCTTTGATTTACAATAGTATATT [GTGCAC_negctrl_site687] | 6.8
TCATTATATTATTCTTGTACTTATATCCTTTTTTGA [XGTACX_site5320] | 6.97
TAAAAGTTCACCTGTACACACATATATATCTGTACA [CACACA_site5019] | 7.04
CAAAATATTATCATGATGCACTTTACACTCTAAGGT | 8.34
AAAAAATAAAAGTGGGGTACATGTCATTATGTGCAT [XGTACX_site3753] | 7.08
TTTTTTTCGTATATTACACACTATAAATAGAAATTA [CACACA_site6278] | 7.1
TCATATTTTACATATGCATGTTAATAATACAAACAT [TGCATGCA_site994] | 6.9
ATTTATTTATGTATTTGTACGTATATATTTATGCAT [XGTACX_site5218] | 7.05
GTATAACAACTGATAAAAGAAAAAAAATTTATTATT [CACACA_negctrl_site377] | 6.8
ATAATATTTTTAAACTGTACTTTTATAAACACTTAT [XGTACX_site2625] | 7.2
ATATTATGTCTACATAAACACACATATATATAAAAA [CACACA_site7976] | 7.14
AATAAATATTCATTTTGTACATATTTTTCGTATATG [XGTACX_site6104] | 6.84
TTACCATAAGTATGTGGTACACTTTAAATGAAGATA [XGTACX_site6972] | 7.06
AATAGTTATAAATATAAATATATATATATATATATA [CACACA_negctrl_site414] | 9.4
TTAACATCAAAATATGCACACAAACAATTAGCGGTA [CACACA_site8801] | 7.82
TATATATATAAATACACACACACCCTAAAAATATAT [CACACA_site4970] | 7.57
TTTTTTTTTTTTTTTACACACACAAAATATTATATG [CACACA_site2471] | 6.88
TATTATTTACCTTGCTAGTTCGTTCCAAATTTTATG [XGTACX_negctrl_site197] | 7.15
TATATTATTCATTAAGCACACATTATTTTTATAATA [CACACA_site6056] | 6.95
ATGTTTGATGCTACACGTACACACCTTGCAAATATT [XGTACX_site1644] | 7.36
AAAACTATAATAAAAGGTACACATTTATTTTTTTCT [XGTACX_site730] | 6.85
AAAACAAATTTTAATGAGAATATGAAAAAAAAATAT [XGTACX_negctrl_site268] | 6.95

Sequence | gcPBM binding intensity (ln)
TATTCTAATATATGCATACACACAAATGTGAATATA [CACACA_site2143] | 7.07
CACATTATGTATCATACACACAAATAAATATAGAAT [CACACA_site609] | 7.03
TTTATATGTATTAAGTGTACACATATAATGTGTTTT [XGTACX_site4890] | 6.86
ATTTTAAATATTTGTGGTACCCCTTTTTTGTAACAA [XGTACX_site5590] | 7.38
TAAAAAAGAACAGAAACACACAAATAAAATAAAATT [CACACA_site1758] | 6.99
CAAAATTGAAGGAACACACATACATATATATATATG [CACACA_site179] | 6.94
CTTTGTGGTATAGATACACACTATATTAATATGAAC [CACACA_site7081] | 7
AAATAAAAAGGGTGCACACAAAAATATATATATATA [CACACA_site1728] | 12.4
ACAAGGAATATATAAGATAATTTTAAATATAACACG [CACACA_negctrl_site1734] | 7.17
ATATATATAATTTTTACACACGCAATAAATATATAT [CACACA_site218] | 7.17
AATCAAAATATATCTACACACATTTAAGTAACACAT [CACACA_site3482] | 6.96
TTATAATAAAGAGGAGTGCAAAAAAAAAAAAAAAAA | 9.48
TAAATATCAAAACACACACACAAAAGTGAATAAATA [CACACA_site3762] | 6.86
TAAAGAGAAAAACATACACACACAACAAAATATGTA [CACACA_site8872] | 6.74
AGGAACATAAGCAATGTATAAACATAAAACTATAAT [CACACA_negctrl_site1832] | 6.83
TATAAGGTGTCCTATACACACTCCAATAAATATATA [CACACA_site2091] | 6.88
ATTTTTTTCTTAGGAGTGCACTTATATTTATTTTAT | 11.2
TATTAATTAAACCATACACACATAACTTTTTTATAA [CACACA_site6526] | 6.91
AAAAAAAAAAAAAACACACACACACCCACATATACA [CACACA_site2663] | 7.41
AATAATTTTTAAATATAAACATTTTTTTTTTTTTTT [GTGCAC_negctrl_site532] | 6.97
ATTAAATGCACATATACACACACCCAATTTTAAGTT [CACACA_site3049] | 7.4
ATAAAATATTAGACATTTATTAATATTACACATATC [XGTACX_negctrl_site364] | 6.81
ATATATATATATTCCACACACACACCCAAAAAAAAA [CACACA_site3649] | 9.15

Sequence | gcPBM binding intensity (ln)
ACAAAATAAACCACGTGTACAAATTTATAATGTGTA [XGTACX_site1153] | 7.21
TTTTATTTTTTATTTGCACACAATATGTAAAAAAAT [CACACA_site2927] | 7.5
TCAAAAGAATAATTGGTGCAAATTATATAATATAAT [GTGCAC_site9804] | 10.2
ATATTTATGGAAAAAGAACACACAATCAAACAAAAA [CACACA_site9233] | 7.18
CTTTTTTATATCTCTACACACATTTATAACCATTTG [CACACA_site4897] | 7.12
TATTTTAAAAAAAAAAGTACACATAATATATATAAC [XGTACX_site5416] | 7.44
ATACATTTATTGTATTGTACATAATATTATATATTC [XGTACX_site7115] | 6.93
TAATATAATAGAAGTGTACACACATATTTATGGGTG [CACACA_site9023] | 7.19
TAATATAATGATGCAGTGCATATGTTAAAATGAAAA | 8.72
AAGGTATTTATAACTACACACTTATTTATAACCTAA [CACACA_site6194] | 6.67
TATACCAATGAATGAGTGCAAAGAAGATAAGGAAAA | 8.58
AATAAAATGAAATGAAATAAAAAAAAAAAAAAAATG [TGCATGCA_negctrl_site305] | 6.71
ACTTATTGTGGTTTTGCATGTAGCATTTTTACATAC [TGCATGCA_site247] | 7.53
TATATTATAAACATATGTACATATGTATAAATACAT [XGTACX_site722] | 7.14
AAAAAAAAAAAAAAATTAAAGTAATGGAAAAAAAAA [CACACA_negctrl_site1666] | 7.02
AACATATATATATACACACACATATATATATGAAAT [CACACA_site279] | 7.12
ATTATTAATATTATATGTACGCACTATATCAAGGCT [XGTACX_site6468] | 7.85
AATCATTTTATTATCCTAACAAAAAAAAAATATATT [CACACA_negctrl_site115] | 6.86
ACGATGCATTAATCTGCACACCACAACAAAACGTTT [CACACA_site899] | 7.71
ACAACGCGTTAAATGTGTACATATTTATAAGTATAT [XGTACX_site8777] | 7.04
AGCTATGTATTCTACACACACATACAGACATATATA [CACACA_site3428] | 7.13
TTTGCATTTCTTAATTGTACTTAAAAAAAAAATAAT [XGTACX_site758] | 7.34
TTCCCTCCTCAAAATTGTACTAGAATAATAACATAA [XGTACX_site8765] | 7.21

Sequence | gcPBM binding intensity (ln)
TACACGCTAAAATACACACACACACCCACATATATA [CACACA_site4153] | 7.18
TTTTTTAAACATATTATGTGTATTACATAGTTATGC [XGTACX_negctrl_site596] | 6.81
TTATAATATTATAAAATAACATTTATTAATTATTGG [CACACA_negctrl_site1794] | 6.62
TTATTATATTAAAATTGTACTTGCTTTCAATATGAT [XGTACX_site5305] | 6.97
TAAACGTTATATAGTGCATGTCATATTTTATTATAT [TGCATGCA_site935] | 9.15
TTCCAAAAAATTATTACACACATATGGGCACATATA [CACACA_site679] | 6.94
TATACATACATACATACACACACACCGATATATACA [CACACA_site8184] | 7.31
TGTTTCTGCTCTGGACATTTTTAAAAAAGGGAAAGC [CACACA_negctrl_site1463] | 7.21
ACGCTAATTATGTGCACACAAATTAAAGGTCTACAA [CACACA_site147] | 9.46
TGCCTATTTTGGATGTGTACACATATATATATTTAT [XGTACX_site6741] | 7.11
ACAAAAAAACATGAAACACACACAAATATATATATA [CACACA_site8566] | 8.71
TATAAAATTAAACAAAGTACTAGACATATATATAGA [XGTACX_site3247] | 6.93
ATTCTATAATATAAGAGTACTTATTTTTTTTAATTT [XGTACX_site7671] | 7.04
AATGTTATTTGTTTATCACACATTAGGATGTTTATA [CACACA_site5710] | 6.79
AAAAAAAAAAAAAACACACACACAAGAGTATATAAA [CACACA_site6580] | 7.24
ATGAATTTATTACATTGTACATTTTTAAAAGGTTAC [XGTACX_site124] | 7.15
TTATATATTTTTTTTTGTACATAGAAGAGGGAAAAA [XGTACX_site2178] | 7.5
AAATGAGTATTCATATGTACACAAATAAAAAATTAA [XGTACX_site2968] | 7.12
ATGGAAGGAAACAATAAAAAAAAAAAAAAATATATA [XGTACX_negctrl_site594] | 6.8
CATTTAAAGGACAAGCTGCACTTACAAAATAAAAAA | 7.52
